Measurements from PubChem BioAssay AID488969 (Vanderbilt High Throughput Screening Facility, 2010).
In all, about 110,000 compounds were measured (“z-score”: median about -0.1, highest 2% from about 2 on). The list shows a part of the results. The source made the active and inactive calls.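 How the source made its calls: active means z-score in the third read window above 3 or below -3; inactive means the rest.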

Molecular target: Metabotropic glutamate receptor 8 (Rattus norvegicus) (UniProt P70579)
Sequence of UniProt P70579 (P70579 whole entry, looked up): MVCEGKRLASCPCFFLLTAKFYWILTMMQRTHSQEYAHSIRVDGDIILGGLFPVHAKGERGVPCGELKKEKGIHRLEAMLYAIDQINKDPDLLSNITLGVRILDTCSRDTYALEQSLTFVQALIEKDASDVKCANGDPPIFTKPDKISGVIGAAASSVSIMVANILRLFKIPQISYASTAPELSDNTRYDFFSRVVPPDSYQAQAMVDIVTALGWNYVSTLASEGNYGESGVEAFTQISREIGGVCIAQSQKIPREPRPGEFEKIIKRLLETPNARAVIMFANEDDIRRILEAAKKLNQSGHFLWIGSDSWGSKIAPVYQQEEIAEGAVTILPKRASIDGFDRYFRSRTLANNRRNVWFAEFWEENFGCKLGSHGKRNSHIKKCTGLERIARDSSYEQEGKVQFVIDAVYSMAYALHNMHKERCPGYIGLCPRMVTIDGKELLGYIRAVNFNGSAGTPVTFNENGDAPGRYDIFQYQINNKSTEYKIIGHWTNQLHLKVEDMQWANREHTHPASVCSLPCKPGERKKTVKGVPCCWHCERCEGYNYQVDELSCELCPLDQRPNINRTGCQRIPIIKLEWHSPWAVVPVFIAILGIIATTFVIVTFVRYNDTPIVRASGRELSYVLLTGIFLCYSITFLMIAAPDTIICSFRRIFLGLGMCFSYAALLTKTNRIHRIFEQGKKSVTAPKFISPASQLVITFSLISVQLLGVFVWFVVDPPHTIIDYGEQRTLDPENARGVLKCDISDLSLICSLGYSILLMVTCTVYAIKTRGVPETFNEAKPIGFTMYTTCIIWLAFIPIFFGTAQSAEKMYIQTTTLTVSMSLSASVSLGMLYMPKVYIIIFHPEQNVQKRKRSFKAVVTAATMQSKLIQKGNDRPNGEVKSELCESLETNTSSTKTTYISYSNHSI
Assay: rat mGluR8 modulators via GIRK flux, primary screen, cell-based, thallium flux, HTS (AID 488969)
Conditions: HEK293 rat mGluR8, GIRK (G protein-gated inwardly rectifying potassium channel) thallium flux, FluoZin2; at 10 µM; stronger effect = higher value; submaximal glutamate (EC20) added with thallium

| Compound | z-score |
| --- | --- |
| O=C(NCCNC1CCN(Cc2ccccc2)CC1)c1cccs1 | -0.614 |
| CCCCn1c(SCC2CCCO2)nc2cc(S(N)(=O)=O)ccc21 (configuration not stated) | -0.252 |
| COCCCNC(=O)C12CCC(C)(C(=O)C1)C2(C)C (configuration not stated) | 0.191 |
| CCCc1cc(=O)oc2cc(C)c3c(C)coc3c12 | -0.386 |
| COc1ccc(OCCSc2n[nH]c(N)n2)cc1 | 0.104 |
| C=CCSc1nnc(-c2cc3c(-c4ccccc4)nn(C)c3s2)n1C | 0.199 |
| Cc1ccc2oc3nc(C)c(C(=O)Nc4cccc(C(F)(F)F)c4)cc3c(=O)c2c1 | -0.0551 |
| CCC(C(=O)Nc1nccs1)(C(F)(F)F)C(F)(F)F | 0.164 |
| Cc1ccc(-c2csc(NC(=O)CSc3nc4ccccc4o3)n2)cc1 | -0.324 |
| O=C(CSc1nc2ccccc2c(=O)n1-c1ccccc1)N1CCc2ccccc21 | -0.051 |
| CCOC(=O)N1CCN(C(=O)C2CCN(S(C)(=O)=O)CC2)CC1 | 0.0186 |
| CC1CCN(C(=O)c2cc(-c3ccc(Cl)c(Cl)c3)on2)CC1 | -0.111 |
| COC(=O)[C@H](C(C)C)n1c(C)c(C(C)=O)c(C(C)=O)c1C | 0.17 |
| O=c1cc(CSc2nnnn2-c2ccccc2)nc2nc[nH]n12 | -0.264 |
| Oc1ccccc1Cn1c(-c2ccccc2O)nc2ccccc21 | 0.219 |
| CN1C(=O)C(=C2CCCCCC2)SC1=S | -0.294 |
| COc1ccc(C2C(C#N)=C(N)Oc3cc4c(cc32)OCO4)cc1 (configuration not stated) | -0.0829 |
| COc1ccc2oc(C(=O)OCC(=O)NC(=O)NC(C)C)c(C)c2c1 | 0.0484 |
| COc1ccc(CCn2c(=N)c(C(=O)NCc3ccco3)cc3c(=O)n4ccccc4nc32)cc1 | 0.369 |
| CC1CCN(C(=O)c2ccc(C(=O)N3CCC(C)CC3)cc2)CC1 | -0.275 |
| CCN(CC(O)COc1ccc(OCC(O)CN(CC)C2CCCCC2)cc1)C1CCCCC1 (configuration not stated) | 2.32 |
| COc1cc(/C=N/n2cnnc2)ccc1OCc1ccc(C)cc1 | -0.758 |
| Cc1ccccc1NC(=S)NC(=O)CCc1ccccc1 | 2.94 |

| Compound | z-score |
| --- | --- |
| Cc1cccn2c(=O)c3cc(C(=O)NCC4CCCO4)n(C)c3nc12 (configuration not stated) | -0.221 |
| CCN(CC)c1ncnc2c1cnn2C | -0.228 |
| CC(C)C(C(=O)O)N1C(=O)/C(=C/c2cccn2C)SC1=S (configuration not stated) | -0.593 |
| COc1cccc(NC(=O)CSc2ncnc3c2cnn3Cc2ccccc2)c1 | -0.23 |
| Cc1ccccc1OCC(=O)N1N=C(c2cccnc2)CC1(O)C(F)(F)F (configuration not stated) | -0.147 |
| Cc1ccc(C(=O)CCC(=O)Nc2cccnc2)cc1C | -0.25 |
| Cc1cccc(OCCC(=O)NCC(=O)Nc2c(C)cccc2C)c1 | -0.104 |
| COc1ccc(C(=O)c2sc3nc(-c4ccccc4)ccc3c2N)cc1 | -0.123 |
| COCCN(C(=O)Nc1ccc(OC)cc1OC)C1CCN(C(C)=O)CC1 | -0.12 |
| O=C(CC(c1ccccc1)c1cc(Cl)ccc1O)N1CCOCC1 (configuration not stated) | -0.151 |
| Cc1nc2ncnn2c(C)c1CCC(=O)NC(C)c1ccc2c(c1)OCCO2 (configuration not stated) | -0.206 |
| Cc1cc(NS(=O)(=O)c2ccc(NC(=O)CSc3nnc(-c4ccco4)n3Cc3ccco3)cc2)nc(C)n1 | -0.115 |
| Cn1nc(Oc2nc(N3CCOCC3)nc(N3CCOCC3)n2)ccc1=O | 0.165 |
| CCOC(=O)c1ccccc1NS(=O)(=O)c1ccc(OCC)cc1 | -0.255 |
| CCOc1ccc(S(=O)(=O)N2CCCCCC2)cc1 | -0.437 |
| CCCCC(O)(CCCC)C(=O)NN(C(=O)OCC)c1ccccc1 | -0.429 |
| COCCOc1ccc(C(F)(F)F)cc1NC(=O)c1ccc(C(F)(F)F)cc1 | 0.133 |
| COc1ccc2c(Cl)c(C(=O)N/N=C/c3ccc4c(c3)OCO4)sc2c1 | 0.0579 |
| Cc1cc(/C=C(\C#N)C(=O)Nc2ccc(F)cc2)c(C)n1-c1ccc(N2CCOCC2)c([N+](=O)[O-])c1 | 0.0895 |
| COc1ccc(C(=O)COC(=O)CNS(=O)(=O)c2ccc(C)cc2)cc1 | -0.781 |
| CCN(CC)S(=O)(=O)c1ccc(NC(=O)CSc2cccc[n+]2[O-])cc1 | -0.324 |
| Cc1cc(NC(=O)CSc2nc(C(C)C)nc3c2c(=O)n(C)c(=O)n3C)no1 | 0.195 |
| Cc1ccc(S(=O)(=O)N(C)CC(=O)Nc2cccc3c2CCCC3)cc1 | -0.226 |

| Compound | z-score |
| --- | --- |
| O=C(CSc1nnc(CNC(=O)c2cccs2)o1)NC1CCCCC1 | -0.338 |
| CCCCNC(=O)OC(C)CNC(=O)OC (configuration not stated) | -0.213 |
| O=C(NCCN1CCCC1)C1CC(=O)N(C2CCCCC2)C1 (configuration not stated) | -1.26 |
| COc1ccc(C)cc1S(=O)(=O)Nc1ccccc1 | -0.475 |
| N#Cc1c(Cl)c(Cl)c2nnc(-c3ccc(Br)cc3)n2c1Cl | -0.505 |
| Cc1c(/C=N/n2cnnc2)c2ccccc2n1C | -1.56 |
| CCN1C(=O)/C(=C/N(C)c2ccccc2)OC1=S | 0.307 |
| Cc1ccc(S(=O)(=O)Nc2nc3ccccc3nc2N2CCN(c3ccccc3F)CC2)cc1 | -0.256 |
| Cc1ccc(-c2c(C)n([O-])c3c([n+]2=O)CCCC3)o1 | 0.171 |
| O=C(CCS(=O)(=O)c1cccc2nsnc12)NCc1ccccc1 | -0.0477 |
| O=c1cc(-c2ccc(Cl)cc2)[nH][nH]1 | 0.375 |
| O=C(CCCC(=O)OCC(Cl)=C(Cl)Cl)Nc1ccc(F)cc1 | 0.53 |
| COc1cccc(NC(=O)CSc2nnc(-c3cc(-c4ccccn4)nc4ccccc34)o2)c1 | 0.909 |
| COC(=O)Cc1csc(Nc2ccccc2)n1 | -0.467 |
| COc1ccc(NS(=O)(=O)c2ccc(N3C(=O)CCC3=O)cc2)cc1 | 0.339 |
| Cc1ccc(SCCC(=O)Nc2c(C)n(C)n(-c3ccccc3)c2=O)cc1 | 0.234 |
| O=C(CSc1nnc(-c2cccs2)o1)Nc1cccc(S(=O)(=O)N2CCCCC2)c1 | -0.19 |
| CC(/C=C1\SC(=O)N(CC(=O)Nc2cccc(O)c2)C1=O)=C\c1ccccc1 | -0.157 |
| Fc1cccc(/C=N/NC(=S)Nc2ccccc2Cl)c1 | active: 11.2 |
| Cc1ccc(Oc2ncc(-c3ccc(Cl)cc3)cn2)cc1 | -0.0734 |
| Cn1c(N/N=C/c2cccs2)cc(=O)n(C)c1=O | 0.96 |
| Cc1cccc(NC(=S)N(CCN(C)C)Cc2cc3cccc(C)c3[nH]c2=O)c1 | 0.0447 |
| Cc1ccc(-c2csc3ncnc(N4CCN(C(=O)c5ccccc5)CC4)c23)cc1 | active: -3.18 |

| Compound | z-score |
| --- | --- |
| Cc1ccc(C(=O)Nc2ccc(CC(=O)O)cc2)o1 | -0.0825 |
| CC(=O)NCCCc1c[nH]c2ccc(Cl)cc12 | 0.497 |
| Cc1ccc(S(=O)(=O)Oc2ccccc2/C=N/NC(=O)c2c(Cl)cnn2C)cc1 | -0.314 |
| CC(C)Cn1c(C(C)C)nc([N+](=O)[O-])c1S(=O)(=O)c1ccc(F)cc1 | -0.276 |
| COc1ccc(C(=O)NC(=S)Nc2cccc(NC(=O)c3ccco3)c2)cc1[N+](=O)[O-] | 0.424 |
| Cc1cc(C)nc(Nc2nc3ccccc3[nH]2)n1 | -0.0598 |
| Cc1cc(=O)oc2cc(Oc3ncccn3)ccc12 | 0.707 |
| O=[N+]([O-])c1ccc(S(=O)(=O)CC2CSc3nc4ccccc4n32)cc1 (configuration not stated) | -0.185 |
| CN(c1ccc([N+](=O)[O-])cc1/C=N/NC(=O)COc1ccccc1)C1CCCCC1 | -0.398 |
| Cn1c(=O)c2c([nH]c(=O)n2C)n(C)c1=O | -0.146 |
| Cn1ccnc1SCC(=O)Nc1cccc2ccccc12 | 0.56 |
| CCOC(=O)Cc1csc(NC(=O)CSc2nc3sc(C(=O)O)c(C)c3c(=O)[nH]2)n1 | 0.0555 |
| O=C(Cc1ncn[nH]1)NCCc1ccccc1 | -0.0683 |
| Cc1ccc(C2NS(=O)(=O)N=C2N)cc1 (configuration not stated) | 0.0154 |
| O=C(CSc1ncn(-c2ccccc2)n1)c1cccs1 | -0.233 |
| Cn1c(=O)n(C)c2cc(/C=N/NC(=O)c3cccc(Br)c3)ccc21 | -0.0375 |
| CC(=O)c1cc(-c2ccccc2)n(CCC(=O)NC2CCCCC2)c1C | -0.0404 |
| COc1ccc(CCNC(=O)CSc2nnc(CNC(=O)c3ccco3)o2)cc1OC | 0.382 |
| O=C(NC1c2ccccc2-c2ccccc21)c1ccco1 | -0.228 |
| CC(C)C(=O)N1CCN(C2=NS(=O)(=O)c3ccccc32)CC1 | -0.466 |
| O=C(Nc1nc2ccccc2s1)c1ccc(Cl)s1 | 1.22 |
| Nc1c(S(=O)(=O)c2cc(Cl)ccc2Cl)c2nc3ccccc3nc2n1CCN1CCOCC1 | 0.528 |
| CN(C)CCCNC(=O)c1ccccn1 | -0.565 |

| Compound | z-score |
| --- | --- |
| CCOC(=O)C(=O)Nc1nnc(SCc2ccc(F)cc2)s1 | -0.179 |
| N#Cc1c(NC(=O)CSc2nc3c(c(C(F)(F)F)n2)CCc2ccccc2-3)sc2c1CCCC2 | -0.12 |
| COc1ccc2nc(NC(=O)C3COc4ccccc4O3)sc2c1 (configuration not stated) | -0.23 |
| Cc1ccc(S(=O)(=O)N/N=C\c2ccc(Cl)c([N+](=O)[O-])c2)cc1 | -0.0249 |
| CCC(Oc1ccccc1)C(=O)Nc1ccc(S(=O)(=O)N2CCOCC2)cc1 (configuration not stated) | -0.348 |
| Cc1nnc(NC(=O)C(C)Oc2ccc3c(C)cc(=O)oc3c2)s1 (configuration not stated) | 0.0718 |
| CCN(CC)S(=O)(=O)c1ccc(Oc2cccc(C(C)=O)c2)nc1 | -0.503 |
| COc1ccc(-n2c(=O)[nH]cc(C(=O)N3CCCc4ccccc43)c2=O)cc1 | 0.0339 |
| Cc1ccc(S(=O)(=O)NNC(=O)Nc2cccc3ccccc23)cc1 | -0.107 |
| c1ccc(CN2CCC3(CC2)Nc2ccccc2CO3)cc1 | 0.141 |
| C=CCNc1nc2c(c(=O)n(C)c(=O)n2C)n1CCCCCC | -1.2 |
| Nc1nnc(SCCOc2ccccc2)s1 | 0.125 |
| CCOc1ccc2nc(NC(=O)C3CCN(S(=O)(=O)c4cnc[nH]4)CC3)sc2c1 | -0.034 |
| COc1ccc(C2Nc3ccccc3C(=O)N2Cc2ccco2)cc1COc1ccc([N+](=O)[O-])cc1 (configuration not stated) | 0.105 |
| Cc1nn(CC(O)Cn2cnc3c2c(=O)n(C)c(=O)n3C)c(C)c1Br (configuration not stated) | 0.865 |
| CCCC(=O)NNC(=O)c1ccoc1C | 0.0372 |
| Cc1nn(Cc2ccccc2)c(Cl)c1C(=O)NCCc1ccc(Cl)cc1 | -0.257 |
| CCC(C)(C)NC(=O)C(c1ccc(C)o1)N(Cc1cccs1)C(=O)Cn1nnc2ccccc21 (configuration not stated) | -0.144 |
| O=C(/C=C\Nc1ccc(Br)cc1)c1cccnc1 | -0.276 |
| O=C(Cn1nc(Cc2cccnc2)c2ccccc2c1=O)NCC1COc2ccccc2O1 (configuration not stated) | 0.122 |
